Hit rate of the full screen: of about 420,000 compounds, about 64,000 (15%) were called active. The shares of active, inactive and inconclusive entries below differ from those in the screen. Calls come from the whole dose curve; as a rule, active = well fitted inhibition curve with a large enough effect; inconclusive = small, poorly fitted or top-dose-only effect; inactive = flat fitted curve, though single readings scatter. Potencies of inconclusive entries are left out as doubtful fits.
Assay: qHTS for Inhibitors of human tyrosyl-DNA phosphodiesterase 1 (TDP1): qHTS in cells in absence of CPT; note: nearly all actives have a fitted effect of over 55% in size
Details: DT40 Tdp1-/- hTDP1 cells, no CPT, ATP luminescence, 48 h; activity change, negative = growth inhibition: at 46.2 µM (top of the series) unless noted
Outline: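 Stably hTDP1-transfected Tdp1-null chicken DT40 cells were treated with library compounds minus camptothecin and grown for at least 48 hr at 37 °C, after which cellular ATP was quantified by luminescence.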
% is set by controls: 0 for no effect and ±100 for the full control effect; potency is the fitted concentration of half-maximal effect; tags give direction and shape of the fitted curve.

Which Potency does the source give for Cc1ccc(Nc2cc(C)nc(N3CCOCC3)n2)c(C)c1 here?
The Potency was inconclusive [inhibitor, single point].

For O=C(Cn1cc(S(=O)(=O)c2ccc(Cl)cc2)c(=O)c2ccccc21)Nc1ccc2c(c1)OCO2, which Potency is on record?
The Potency was inconclusive [inhibitor, single point].

Which Potency does the source give for CCOc1ccc(/C=C/C(=O)c2cc(Br)ccc(=O)c2O)cc1 here?
Its Potency is active: 3.66 µM.

For OC(CNc1ccnc2cc(Cl)ccc12)CNC1CCCCC1 (stereo not given), which Potency is on record?
Its Potency is active: 16.4 µM.

Which Potency does the source give for Cc1ccc(NC(=O)c2cc3c(s2)CCC3)cc1S(=O)(=O)N1CCOCC1 here?
Its Potency is inconclusive [inhibitor, single point].

Which Potency does the source give for Fc1ccc([C@@H]2Nc3ccccc3[C@@H]3C=CC[C@@H]32)cc1 here?
Its Potency is inconclusive [inhibitor, single point].

With CCCCCCCC/C=C\CCCCCCCC(=O)O as the molecule, how does the Potency read?
The Potency was “inactive”.

For COc1ccc(S(=O)(=O)N2CCCCCC2)cc1C(=O)NCc1ccccc1Cl, which Potency is on record?
The Potency was inconclusive [inhibitor, single point].

For Cc1ccc(C)c(Nc2ncnc3c2cnn3-c2ccc(F)cc2)c1, which Potency is on record?
The Potency was inconclusive [inhibitor, single point].

For O=C(NCCc1ccc(F)cc1)N[C@@H](Cc1ccccc1)C(=O)O, which “activity change, negative = growth inhibition” value is on record?
Its value is inactive: 4.27%.

Which Potency does the source give for COc1ccc2c(c1)cc(C(O)c1ccccn1)n2S(=O)(=O)c1ccccc1 (stereo not given) here?
The Potency was inconclusive [inhibitor, single point].

Which Potency does the source give for COc1ccc(N2C(=O)[C@@H]3C[C@H]2CN3Cc2cccn2-c2ccc(Cl)cn2)c(C)c1 here?
Its Potency is inconclusive [inhibitor, single point].

With Cc1ncoc1C(=O)NCc1ccccc1Cl as the molecule, how does the Potency read?
Its Potency is inconclusive [inhibitor, partial curve, poor fit].

For Cc1nnc(N2CCC(C(=O)N3CCCCC3)CC2)c2nn(-c3ccccc3)c(C)c12, which Potency is on record?
The Potency was inconclusive [inhibitor, single point].

For C(=C\c1cccc2ccccc12)/c1nnc(-c2cccs2)o1, which Potency is on record?
Its Potency is inconclusive [inhibitor, single point].

Which “activity change, negative = growth inhibition” value does the source give for CC(=O)Cn1c(CN2CCN(C(=O)c3ccco3)CC2)nc2c1c(=O)n(C)c(=O)n2C here?
The value was inactive: -7.5%.

With Cc1ccc(NC(=O)COc2coc(CN3CCc4ccccc4C3)cc2=O)c(C)c1 as the molecule, how does the Potency read?
Its Potency is inconclusive [inhibitor, single point].

For O=S(=O)(Nc1cccc(-c2ccc(N3CCOCC3)nn2)c1)c1cc(Cl)ccc1Cl, which Potency is on record?
The Potency was inconclusive [inhibitor, single point].

With Cn1c(=O)c2c(nc(NCc3cccnc3)n2Cc2ccccc2Cl)n(C)c1=O as the molecule, how does the activity change, negative = growth inhibition read?
Its activity change, negative = growth inhibition is inconclusive: -30.1% [inhibitor].

With CC(C)(C)c1ccc(NC(=O)COC(=O)c2ccc(NS(=O)(=O)c3ccc(F)c(F)c3)cc2)cc1 as the molecule, how does the Potency read?
The Potency was inconclusive [inhibitor, partial curve].

With CNC(=S)N/N=C(\C)c1ccc(C)c(C)c1 as the molecule, how does the Potency read?
The Potency was active: 3.26 µM.

With COc1cc(/C=C(/NC(C)=O)C(=O)O)cc(Cl)c1OCc1ccc(Br)cc1 as the molecule, how does the “activity change, negative = growth inhibition” value read?
The value was inactive: -5.11%.

For CSC1=C(C#N)C(c2ccc(C(C)C)cc2)CC(=O)N1 (stereo not given), which Potency is on record?
The Potency was inconclusive [inhibitor, single point].

With CC(OCC(O)CN(C)Cc1nc2ccccc2c(=O)[nH]1)c1ccc(Cl)cc1 (stereo not given) as the molecule, how does the Potency read?
The Potency was inconclusive [inhibitor, partial curve, poor fit].

With COc1cc(NC(=O)Cn2c(=O)n(Cc3ccccc3Cl)c(=O)c3cc(OC)c(OC)cc32)cc(OC)c1 as the molecule, how does the “activity change, negative = growth inhibition” value read?
The value was inactive: -29%.

With COc1cc(OC)cc(C(=O)NCC(=O)N2CCN(c3ccc(O)cc3)CC2)c1 as the molecule, how does the Potency read?
The Potency was inconclusive [inhibitor, single point].

For CC(=O)Nc1ccc(SC[C@H](CC(C)C)N2CCN(CCc3ccccc3)CCC2=O)cc1, which Potency is on record?
Its Potency is inconclusive [inhibitor, single point].

With CCC(C)[C@@H](C(=O)N1CCNCC1)n1cc(CCCN=C(N)N)nn1 (stereo not given in full) as the molecule, how does the “activity change, negative = growth inhibition” value read?
Its value is inactive: -7.36%.

With O=C(NC1CCCCC1)C(c1ccc(F)cc1)N(Cc1ccco1)C(=O)CN1C(=O)c2ccccc2S1(=O)=O (stereo not given) as the molecule, how does the Potency read?
Its Potency is active: 18.4 µM.

With CCOc1cc(N2CCOCC2)c(OCC)cc1NC(=O)c1cccc(S(=O)(=O)N2CCOCC2)c1 as the molecule, how does the Potency read?
The Potency was inconclusive [inhibitor, single point].

With CCc1ccc(Nc2ncnc3sc4c(c23)CCCC4)cc1 as the molecule, how does the Potency read?
The Potency was active: 18.4 µM.

With O=C(c1cc(-c2ccccc2Cl)nc2ccccc12)N1CCN(c2ccccc2O)CC1 as the molecule, how does the Potency read?
Its Potency is inconclusive [inhibitor, single point].

With CC[n+]1c(C)sc2cc(C)ccc21 as the molecule, how does the Potency read?
Its Potency is active: 3.66 µM.

For CN(CC(=O)Nc1ccc(Cl)cc1)C(=O)CCNC(=O)c1ccc(Cl)cc1, which Potency is on record?
The Potency was inconclusive [inhibitor, single point].

Which “activity change, negative = growth inhibition” value does the source give for CCSc1ncccc1C(=O)N[C@@H](CCSC)C(=O)OC here?
The value was inactive: -14.9%.

For COc1ccccc1C(=O)Nc1cc(C)ccc1NC(=O)c1ccco1, which Potency is on record?
The Potency was inconclusive [inhibitor, single point].

Which “activity change, negative = growth inhibition” value does the source give for COc1ccc(OC)c(/C=N/NC(=O)C(O)c2ccccc2)c1 (stereo not given) here?
The value was inactive: -28.6%.

With c1ccc(N/N=C2\CCCc3ccccc32)nc1 as the molecule, how does the “activity change, negative = growth inhibition” value read?
Its value is inactive: -16.7%.

With CCCN(C(=O)c1cc2c(=O)n(CC)c3ccccc3c2s1)c1ccccc1F as the molecule, how does the Potency read?
Its Potency is active: 6.51 µM.

With CCCc1c(C(=O)OCC)nnc2c(-c3ccccc3)c(C)nn12 as the molecule, how does the “activity change, negative = growth inhibition” value read?
Its value is inactive: -24.1%.

For CCCCOc1ccc(C(=O)NO)cc1, which Potency is on record?
The Potency was active: 15.8 µM.

With Cc1cc(S(=O)(=O)N2CCCc3ccccc32)ccc1-n1cnnn1 as the molecule, how does the Potency read?
The Potency was inconclusive [inhibitor, single point].

With Cc1ccc(/C=N/NC(=O)CSc2nnc(-c3ccccc3)n2-c2ccc(Cl)cc2)o1 as the molecule, how does the Potency read?
Its Potency is inconclusive [inhibitor, single point].

Which Potency does the source give for CN1CCN(S(=O)(=O)c2ccc(NC(=O)Nc3cccc(Cl)c3)cc2)CC1 here?
Its Potency is inconclusive [inhibitor, single point].

Which Potency does the source give for COc1ccc(Cl)cc1C1=NOC2(CCC2)C(=O)N1Cc1ccc(NC(C)=O)cc1 here?
Its Potency is inconclusive [inhibitor, single point].
